# Data published in PMC4336329 (PLoS ONE, 2015).
# The campaign covered roughly 310,000 compounds. About 2,200 (0.71%) showed an effect of 50% or more. The effect is printed as a negative number. Some of the results follow.
# Target: human ether-à-go-go-related gene (hERG) potassium channel (human, UniProt Q12809)
# Assay: primary screen, population patch clamp on CHO cells stably expressing hERG
# Sequence of human ether-à-go-go-related gene (hERG) potassium channel (Q12809 whole entry, looked up): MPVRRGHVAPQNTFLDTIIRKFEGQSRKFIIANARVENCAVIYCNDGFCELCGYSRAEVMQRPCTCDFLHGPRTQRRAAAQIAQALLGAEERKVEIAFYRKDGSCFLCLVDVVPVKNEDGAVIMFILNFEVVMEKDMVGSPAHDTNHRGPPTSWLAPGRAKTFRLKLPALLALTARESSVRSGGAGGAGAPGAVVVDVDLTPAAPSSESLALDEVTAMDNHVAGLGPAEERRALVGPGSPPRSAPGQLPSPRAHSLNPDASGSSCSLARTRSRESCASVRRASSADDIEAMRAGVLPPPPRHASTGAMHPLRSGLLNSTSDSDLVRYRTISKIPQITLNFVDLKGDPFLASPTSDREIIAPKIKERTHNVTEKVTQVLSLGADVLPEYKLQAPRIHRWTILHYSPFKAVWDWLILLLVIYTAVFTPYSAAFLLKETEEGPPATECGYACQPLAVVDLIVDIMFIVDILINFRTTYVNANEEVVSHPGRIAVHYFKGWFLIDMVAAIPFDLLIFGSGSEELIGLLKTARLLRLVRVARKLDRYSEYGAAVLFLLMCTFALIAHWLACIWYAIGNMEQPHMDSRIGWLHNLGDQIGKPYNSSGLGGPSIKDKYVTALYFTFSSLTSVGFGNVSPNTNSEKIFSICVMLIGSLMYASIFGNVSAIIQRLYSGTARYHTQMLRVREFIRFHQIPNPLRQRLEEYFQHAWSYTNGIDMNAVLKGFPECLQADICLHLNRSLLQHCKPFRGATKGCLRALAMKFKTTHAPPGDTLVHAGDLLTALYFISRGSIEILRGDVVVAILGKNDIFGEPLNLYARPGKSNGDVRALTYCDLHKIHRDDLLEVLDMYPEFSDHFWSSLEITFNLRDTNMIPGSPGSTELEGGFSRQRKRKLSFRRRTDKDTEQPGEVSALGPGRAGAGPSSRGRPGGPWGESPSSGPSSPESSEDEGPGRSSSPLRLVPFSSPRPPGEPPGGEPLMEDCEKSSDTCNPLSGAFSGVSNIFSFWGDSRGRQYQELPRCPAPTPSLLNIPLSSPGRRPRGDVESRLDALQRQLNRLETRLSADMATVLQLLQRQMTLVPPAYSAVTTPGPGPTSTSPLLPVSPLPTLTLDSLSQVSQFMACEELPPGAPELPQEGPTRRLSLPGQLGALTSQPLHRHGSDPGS
row,SMILES,"hERG current change (%, negative = inhibition) at 1uM [%]"
1,CCOc1cc(C2C3=C(CCCC3=O)Nc3ccc4ncccc4c32)ccc1O (centres unmarked),12.3
2,CCSc1ccccc1C(=O)NC1CCCCC1,19.4
3,O=C(NCc1cccnc1)c1ccc([N+](=O)[O-])cc1,6.28
4,CC(C)Oc1ccc(C2CC(=O)N(c3ccc(N(C)C)cc3)C2=O)cc1 (centres unmarked),13.7
5,CC(c1ccccc1)n1cncc1C(=O)N1CCCC1=O.Cl (centres unmarked),4.79
6,CC(=O)c1cccc(NC(=O)COC(=O)COc2ccccc2C)c1,8
7,Cc1ccc(/C=C2\C(=O)NC(=S)N(c3ccc(F)cc3)C2=O)o1,17.4
8,Cc1ccc(N(c2ncnc(N)c2[N+](=O)[O-])C2CCCCC2)cc1,-2.25
9,CC1CCN(S(=O)(=O)c2ccc(N=NC3=C(O)CC(C)(C)CC3=O)cc2)CC1,10.1
10,CN1CCN(c2cc(N3CCCCCC3)c(F)cc2[N+](=O)[O-])CC1,5.78
11,O=C(c1ccccn1)N1CCN(c2ccc(C(F)(F)F)cn2)CC1,-2.86
12,Cc1cc(NC(=O)CCC(=O)NNC(=O)c2ccc(C(C)(C)C)cc2)no1,6.49
13,Cc1cc(C)c(OC2(c3ccccc3)OC(=O)c3ccccc32)c(C)c1 (centres unmarked),-0.648
14,CCOC(=O)CN1C(=O)CSc2ccccc21,12.1
15,C=CCN1N=C(/C=C/c2ccc(C)cc2)CCC1=O,12.9
16,COc1ccc(F)cc1S(=O)(=O)NCCCn1ccnc1,20.5
17,O=C(O)c1ccc(CN2C(=O)c3ccc(Oc4ccc([N+](=O)[O-])cc4)cc3C2=O)cc1,8.25
18,C=CCNC(=O)C1CC(=O)N(c2ccc(OCC(=O)Nc3ccc(Cl)cc3)cc2)C1 (centres unmarked),9.58
19,CCN(CC)C(=O)Nc1cnc2ccccc2c1,12.6
20,CCOc1ccc(Cl)cc1S(=O)(=O)N1CCC(C(=O)NCc2ccncc2)CC1,12.1
21,COc1ccc(C2=NOC(C(=O)O)C2)cc1 (centres unmarked),3.26
22,COc1ccccc1C(=O)NC(=S)N1CCc2ccccc21,30.8
23,O=C(CCn1c(=S)[nH]c2cc3c(cc2c1=O)OCO3)N1CCc2ccccc2C1,1.55

row,SMILES,"hERG current change (%, negative = inhibition) at 1uM [%]"
1,O=S(=O)(NCCc1ccccc1)c1cccc(S(=O)(=O)N2CCOCC2)c1,4.96
2,CCOC(=O)c1ccc(NC(=O)CN2C(=O)CSC2=O)cc1,-7.9
3,COc1ccc(C2C(C(=O)N3CCN(C)CC3)c3cc(OC)c(OC)cc3C(=O)N2C)cc1 (centres unmarked),-2.46
4,Cl.O=C(CCN1CCc2ccccc2C1)c1ccc2c(c1)OCCO2,-13.3
5,NC(=O)c1ccccc1NC(=O)COC(=O)C1(c2ccccc2)CC1,8.91
6,COc1ccc(C2c3cc(OC)c(OC)cc3CCN2C(=O)c2ccccc2)cc1OC (centres unmarked),15.7
7,CCOC(=O)CSc1nc2cc(C(=O)NCc3ccco3)ccc2c(=O)n1-c1ccc(F)cc1,1.34
8,Cc1cccc(N(CC(=O)NC2CCCCC2)C(=O)c2c(C)noc2C)c1,16.8
9,Cc1oc(-c2ccc(Cl)cc2)nc1CS(=O)CC(=O)NC1CCCC1 (centres unmarked),10.6
10,COc1cc2cc(C(=O)N/N=C/c3cccc(OC)c3OC)[nH]c2cc1OC,6.39
11,CC1CCCC(C)N1CCCNC(=O)c1ccc2nc(N3CCCCC3)sc2c1 (centres unmarked),-6.55
12,O=C(NCC(=O)N(Cc1cccs1)C(C(=O)NC1CCCCC1)c1ccco1)c1cccs1 (centres unmarked),8.28
13,COc1ccc(-n2nc(C(=O)NCC(=O)N3CCN(c4ccccc4F)CC3)c3ccccc3c2=O)cc1OC,-1.44
14,Cc1nc2ccccc2c(=O)n1/N=C/c1cc(Br)cc(Br)c1O,11.6
15,CCN(CC)CCCNC(=S)N1CCC(c2nc3ccccc3[nH]2)CC1,10.7
16,O=C1C2CCCN2C(c2ccccc2)N1c1ccc(F)cc1 (centres unmarked),7.34
17,Nc1cc(Cl)ccc1C(=O)OCC(=O)N1CCOCC1,17.5
18,CCC(=O)N(Cc1ccco1)C1CC(=O)N(c2ccccc2)C1=O (centres unmarked),-34.3
19,NC(=O)c1ccc(SCC(=O)OCC(=O)N2CCCC2=O)c([N+](=O)[O-])c1,-3.22
20,O=C(/C=C/c1ccccc1)NCCc1ccc2c(c1)OCCO2,-3.68
21,Cc1cc(C)c2c(n1)nn1c(NCCCN(C)C)cc(C)nc21,-0.862
22,O=C(Cc1cccs1)Nc1ccc(-c2nnn(CC(=O)N3CCOCC3)n2)cc1,11.7
23,CC1CCCN(C(=O)CSc2nnc(-c3ccco3)n2C)C1 (centres unmarked),11.3

row,SMILES,"hERG current change (%, negative = inhibition) at 1uM [%]"
1,CCOc1ccc(C(=O)NCC(=O)NCC(c2ccco2)N2CCCCC2)cc1 (centres unmarked),5.61
2,O=c1[nH]c2ccccc2[n+]([O-])c1-c1ccccc1,12.2
3,COc1ccc(OC)c(NC(=O)C2CCN(Cc3cnn(-c4ccccc4)c3-n3cccc3)CC2)c1,5.58
4,O=C(NCCc1ccccc1)C1CCN(C(=O)c2sccc2-n2cccc2)CC1,8
5,O=[N+]([O-])c1cccc(S(=O)(=O)Nc2cccc(-c3ccc(N4CCOCC4)nn3)c2)c1,4.35
6,COC(=O)C1CCN(C(=O)COC(=O)c2oc3ccccc3c2C)CC1,4.08
7,CC(C)N(C(=S)NCc1ccccc1)C(C)C,8.61
8,O=C(Nc1cccc(-c2nn[nH]n2)c1)c1ccc(Br)s1,8.98
9,Cc1cccc(-n2c(SCc3cc(=O)n4ccsc4n3)nc3ccccc32)c1,4.45
10,COc1ccc(CC(=O)Nc2nc(-c3ccc(F)c(F)c3)cs2)cc1,7.95
11,Cn1c(CNC(=O)CNC(=O)c2ccc(C(C)(C)C)cc2)cc(=O)n(C)c1=O,9.45
12,COc1ccc(S(=O)(=O)N2CCOC23CCN(C(=O)c2c(F)cccc2Cl)CC3)cc1,10.8
13,CCC1=NN(C(=O)c2ccccc2O)C(O)(c2ccccc2)C1 (centres unmarked),8.3
14,COCCSc1nnc(NC(=O)C2CC(=O)N(c3ccc(C)cc3)C2)s1 (centres unmarked),9.23
15,CCOC(=O)C1CCCN(C(=O)CCCn2c(=O)c3cccn3c3cccnc32)C1 (centres unmarked),10.8
16,Cc1cc(=O)oc2cc(OCCc3ccccc3)ccc12,3
17,CCCNC(=O)COC(=O)/C=C/c1ccc2c(c1)OCO2,14.1
18,COc1ccc2c(c1)[nH]c1c(N3CCN(Cc4ccc5c(c4)OCO5)CC3)ncnc12,-8.29
19,O=C(Nc1ccc(S(=O)(=O)N2CCOCC2)cc1)c1ccc(Cl)s1,4.62
20,COc1ccc(NC(=O)N2CCC(C(=O)c3ccc(F)cc3)CC2)cc1,5.17
21,Cc1ccc(S(=O)(=O)N(C)C)cc1NC(=O)CSc1nncs1,5.7
22,O=C(/C=C\c1cn(-c2ccccc2)nc1-c1ccccc1)Nc1nccs1,17.5
23,COc1cc(OC)cc(C(=O)N2CCC3(CC2)NCCc2[nH]cnc23)c1,16.3

row,SMILES,"hERG current change (%, negative = inhibition) at 1uM [%]"
1,S=C1NC2=C(CCC/C2=C\c2ccc(Cl)cc2)C(c2ccc(Cl)cc2)N1 (centres unmarked),8.98
2,OC1COC(OCC2OC(OCc3ccccc3)C(O)C(O)C2O)C(O)C1O (centres unmarked),-10.9
3,CC(=O)Nc1ccc(C(=O)NNC(=O)c2ccc(Cl)cc2Cl)cc1,15.3
4,Oc1ccccc1C(=S)N1CCCC1,12
5,Cc1cccc(C(=O)NCCCNC(=O)c2cccc(C)c2)c1,7.74
6,Cc1ccc(S(=O)(=O)NC2(C(F)(F)F)NC(=O)N(C)C2=O)cc1 (centres unmarked),12.3
7,OCC1(CCOc2ccccc2)CCN(Cc2cccn2-c2ncccn2)CC1,-82.4
8,CC1CCN(C(=O)Cn2nnnc2CN2CCOCC2)CC1,-2.88
9,COc1ccc(Nc2nc(-c3ccccc3)nc3ccccc23)cc1S(=O)(=O)N1CCOCC1,2.46
10,O=C(Nc1cccc(Cl)c1Cl)c1cc(S(=O)(=O)NCCc2ccccc2)ccc1F,7.02
11,Cc1cccc(CSc2ncnc3ccccc23)c1,11.9
12,CC1CCN(S(=O)(=O)c2ccc(C(=O)OC(C)C(=O)NC3CCCCC3C)cc2)CC1 (centres unmarked),4.2
13,CCOC(=O)Cn1nc(-c2ccccc2)c2cnc3ccc(CC)cc3c21,14.3
14,COc1ccc(-c2ccc(NC(=O)c3ccc(Br)o3)cc2)nn1,5.87
15,CCOc1ccccc1NS(=O)(=O)c1ccc(Br)s1,5.39
16,COc1ccc(Cl)cc1S(=O)(=O)N1CCC(C(=O)N2CCOCC2)CC1,6.86
17,CC(C)[C@H](NC(=O)OCc1ccccc1)C(=O)OCC(=O)NC1CCCCC1,8.14
18,CCOc1ccc(NC2OC(CO)C(O)C(O)C2O)c([N+](=O)[O-])c1 (centres unmarked),12.1
19,CCC(C)(C)NC(=O)Cc1ccc(Cl)cc1,1.1
20,COc1cc(C(=O)OCCNC(=O)c2ccccc2)cc(OC)c1OC,5.6
